# Results: the supplement of paper PMC4466236
# Over roughly 33,000 sequences, “E-score (dimensionless, -0.5 to 0.5)” has its median near -0.058; the highest 2% begin near 0.35. This is one part of the list.
# Test system: MvaT
# Experiment: PBM 8-mer E-score (mean of HK and ME arrays) (E-score (dimensionless, -0.5 to 0.5)); higher = stronger relative binding preference; most listed sequences are background and not binding sites
# Summary of the method: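 Reported values are rank-based E-scores, taken as the mean of two universal arrays and parsed with a custom script. Each 8-mer score falls between -0.5 and 0.5. The arrays, ME and HK, were double-stranded 60-mers with a constant 25-mer primer region and a variable 35-mer region covering all 8-mers. They were probed, by an earlier protocol, with full-length P. aeruginosa MvaT carrying an N-terminal glutathione S-transferase fusion.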
row,Sequence,PBM 8-mer E-score
1,AAAAGACA,0.0356
2,ACGCACTG,-0.0124
3,ACCGAGAA,-0.0905
4,CTCCTAAC,-0.0334
5,CTGTTTAC,-0.0364
6,ACTCTGCC,-0.017
7,AACAAAAG,0.246
8,GAGCTAGA,-0.134
9,AGGCGTCC,-0.188
10,GGCGGAAC,-0.146
11,CATCCAGC,-0.156
12,CCATGGCC,-0.228
13,CTCTGAGA,-0.059
14,GACTCTTA,0.0799
15,CCCTGAAC,-0.186
16,GCGCAAGA,-0.123
17,TACGATCA,0.0229
18,ATGTCTTG,0.0131
19,AAGCGAAG,-0.0917
20,AGTGAATG,0.0409
21,ACAATCAT,0.191
22,CGTGTATA,0.217
23,ATAGCGCA,-0.0123
24,CGGGTCAG,-0.313
25,CGCGAAAG,-0.237

row,Sequence,PBM 8-mer E-score
1,CTTACTAA,0.161
2,GATGAGAC,-0.135
3,CTGCCTTC,-0.156
4,GCTCACCC,-0.231
5,AAGCCCAT,-0.123
6,AAGGCCAA,-0.0804
7,AACATCAT,0.171
8,CCTATTGA,-0.0596
9,AGACCTAT,-0.162
10,AAATTAAT,0.426
11,GAGCCGAC,-0.262
12,CGCCTATA,0.0163
13,GCCTTAGA,-0.187
14,CCTACACC,-0.222
15,CATATGGA,0.0392
16,TGACGCCA,-0.23
17,ATTGCCCA,0.114
18,CTGAGAAG,-0.123
19,AGTCATCG,-0.269
20,TCGTGTAA,0.0375
21,GACGGAGA,-0.132
22,ACTAACCC,-0.139
23,CTCAAAAG,-0.194
24,CGTATGCC,-0.164
25,TACCGCCA,0.103

row,Sequence,PBM 8-mer E-score
1,GACATAGA,0.0048
2,AAAGTGCG,0.116
3,GTATCCAC,0.0224
4,TTAGCAAA,0.165
5,GCGCCAGA,-0.246
6,TCCATTAA,0.244
7,GCTTGTAC,-0.268
8,CAATTGGC,-0.0444
9,ACCGAACA,-0.12
10,CCGGAGCA,-0.192
11,ATTCATAG,0.106
12,AGCTTGCG,-0.227
13,AATGTAGA,0.198
14,AGAGTTAG,0.121
15,CTGTATAA,0.264
16,TGTACAAA,0.275
17,AGCTCTGC,-0.282
18,CAGCCCGC,-0.231
19,GAAACCAC,-0.154
20,ACGTGCAA,0.138
21,GTTACGAA,-0.144
22,TGCGCTAA,0.0528
23,GCCGTTCC,-0.236
24,GACTAGAC,-0.129
25,CAAACACG,0.0231

row,Sequence,PBM 8-mer E-score
1,ACGCTGCC,-0.0458
2,ATTGGCAG,-0.105
3,CAGCAAAG,-0.137
4,TATCTTGA,0.171
5,AAACAATA,0.375
6,GTCTCGAA,-0.195
7,AGTCTCTC,-0.223
8,TTGAGAAA,0.135
9,GCGGACCA,-0.215
10,ATGTAATA,0.317
11,CACTGGGC,-0.225
12,GCTAATCC,-0.00964
13,CAAGATCG,-0.0377
14,CTGTGGAA,-0.0858
15,CTGTAAGC,-0.244
16,GGTGCATA,0.122
17,AAGCCGGA,-0.238
18,AACGTCGC,-0.0885
19,CTTGAACA,-0.0207
20,CAAGAGCC,-0.126
21,TATCTGCA,0.161
22,ACCTCCCG,-0.284
23,AATCCGGT,-0.0559
24,CAGGGGAC,-0.275
25,CGATGGCG,-0.208

row,Sequence,PBM 8-mer E-score
1,CTTCACCC,-0.0312
2,TACAAGGA,0.0292
3,GGCTCCTA,-0.175
4,AAATTCTT,0.202
5,AAATATTT,0.463
6,CTGCTGGC,-0.206
7,AATTTTCA,0.28
8,GACACTCA,-0.151
9,CCACTCTA,-0.0493
10,ACCGTCCG,-0.0624
11,ACTCCACT,-0.122
12,CTGCCAGA,-0.127
13,ACAGCTTG,-0.162
14,ATATACCG,0.292
15,CGCAGCTA,-0.0863
16,AGTACACC,-0.0289
17,TAATGCGA,0.181
18,CTTTCACC,0.0209
19,CCTAAGCC,-0.154
20,CCCGAACC,-0.262
21,CAAACCAG,0.029
22,CCTGGTAG,-0.276
23,CCTTATAC,0.119
24,CAGTCACG,-0.198
25,CCGGTGCG,-0.289

row,Sequence,PBM 8-mer E-score
1,CAGTGGTC,-0.232
2,GGTCCTGA,-0.23
3,GGTAACAC,-0.0607
4,CACACCGG,-0.205
5,CACACGCA,-0.0659
6,GAGTACCA,-0.178
7,AGGTGTAC,-0.147
8,AGTTCCAT,0.0749
9,AAACACCT,0.0794
10,TATCGTGA,0.0878
11,GGTTGTGA,-0.0521
12,GGCGTCTA,-0.284
13,TTAGACAA,0.157
14,AAGATGTG,-0.0435
15,ACGCCCAC,-0.161
16,GGACTACC,-0.179
17,ACGCACCG,-0.0972
18,CGTTGCGA,-0.152
19,CTACTGAG,-0.224
20,TCCAAAGA,0.0835
21,CCTCAATA,0.0424
22,ATTACTGA,0.0102
23,GCGCTGAA,-0.0885
24,AAGAAAAA,0.227
25,ATGACCTG,-0.161

row,Sequence,PBM 8-mer E-score
1,GCTGACTA,0.00173
2,GACGCAAA,-0.0286
3,TAATATAA,0.463
4,GAAGCGCC,-0.27
5,TAGCTTAA,0.204
6,ACTATGCA,0.0943
7,AAGAATCC,-0.0742
8,CCATGCGA,-0.151
9,CCCGCCCC,-0.361
10,ATCACTAA,0.0111
11,AATGAGTG,0.16
12,ATGCGGTC,-0.13
13,CTGATCGC,-0.167
14,ACATCTCG,-0.0682
15,AGGCATTC,-0.0959
16,AAGGATGC,-0.172
17,CCTGCTAG,-0.279
18,ACCACCGG,-0.167
19,CAGCAAGC,-0.204
20,ACTCACTC,-0.0877
21,CACCACTC,-0.0842
22,GTCACGCA,-0.102
23,CCATACAG,-0.141
24,ACCCCTGG,-0.306
25,ACTATAGA,0.127

row,Sequence,PBM 8-mer E-score
1,AGCGGCAA,-0.023
2,GAGCCCCA,-0.336
3,AATTGAAC,0.155
4,CGAGCTTC,-0.313
5,AGCGCGCA,-0.0694
6,AATCCCTC,-0.138
7,AGTTCAAG,0.147
8,ACCATCTA,0.132
9,GCCTATGA,-0.24
10,CCATACTC,0.0987
11,AAGTTGAA,0.268
12,CATTTGCA,0.144
13,AGAACCTA,-0.105
14,ATGTCTCG,0.00952
15,AATGCGAA,0.0409
16,GTACGTAA,-0.00701
17,AACAGAGT,0.0809
18,ACCTTACT,0.0694
19,TAAGGCGA,-0.0716
20,GATGGATA,0.126
21,CCCAAGAA,-0.148
22,ATAACTCG,0.255
23,GTTATAAC,0.434
24,GGTAAACC,-0.0221
25,GCCATAAA,0.185

row,Sequence,PBM 8-mer E-score
1,AATCCAAT,0.147
2,TCCACCCA,-0.118
3,GAGAGTCA,-0.341
4,ACGGGATC,-0.22
5,TGTGAGAA,0.0468
6,CGGCCCCC,-0.317
7,CTTTAGGA,-0.104
8,TGTTGAAA,0.23
9,CTAACCCA,-0.0114
10,TAAGTCTA,0.132
11,GCACTGAA,-0.03
12,ATCAGCTC,-0.144
13,ATGTAGTA,0.259
14,ACCATCAT,0.138
15,GTTAAATA,0.396
16,GGGATTTA,0.11
17,ATGAGCTA,-0.14
18,AAGCTGTG,-0.172
19,GCCGCTAC,-0.0886
20,AGTATGTG,0.209
21,CACGTAAC,0.0727
22,CAGCACGA,-0.15
23,GAACGGCA,-0.0405
24,ATTTCTAA,0.232
25,AGCGCGAC,-0.125

row,Sequence,PBM 8-mer E-score
1,CCCAGAAC,-0.0307
2,ATTGGGTC,-0.0304
3,CTAGCTAA,-0.167
4,ACCGCTCG,-0.195
5,GTTGAGTA,0.0405
6,CCATAACA,0.184
7,AGTCTTAA,0.0858
8,CATCAAGC,-0.188
9,AGTCCAGC,-0.172
10,ATTCGGCA,0.114
11,AATCCTAC,-0.0823
12,ATGAAACC,-0.179
13,CGAGGTTC,-0.303
14,AGGTTACC,-0.212
15,CGATTCCA,-0.0397
16,AACATTCC,0.166
17,AACCTTTG,0.0371
18,GGCCGCCC,-0.367
19,GGTTAACC,-0.0887
20,AAGCGTCA,-0.00559
21,CGGAGTTC,-0.106
22,AATTGTGA,0.168
23,AGTCCCAA,-0.0646
24,GACGTAAC,-0.0078
25,GTGTAGGA,-0.118

row,Sequence,PBM 8-mer E-score
1,AGATTGAC,-0.15
2,AAATTATC,0.318
3,CGTTTGAC,-0.0853
4,ACAGGCGC,-0.258
5,AGCAGAAG,-0.118
6,GAAGGATA,0.0386
7,GCGGGTTA,0.0558
8,GAGCGCAA,0.0314
9,TCGTATCA,0.0351
10,CGAGTCAC,-0.21
11,CCGCGAGA,-0.101
12,ATTTCTAG,0.0898
13,ACCCAGGA,-0.12
14,CCCACATA,0.0562
15,CAGTTCAA,0.0238
16,AACCAAAA,0.167
17,GAACAAAA,0.114
18,TCTTTGAA,0.164
19,CACTATCA,0.228
20,TAGGCTAA,0.109
21,GTAGTGAA,0.0128
22,CGCTCCGC,-0.285
23,CCAGCACA,-0.0695
24,CACAAGTG,-0.123
25,AATCTGCA,-0.121

row,Sequence,PBM 8-mer E-score
1,CACGCGAA,-0.0648
2,AGAGGTAT,-0.012
3,ATCCTTTA,-0.00829
4,ATTTATGA,0.244
5,ACGGTTAA,0.0361
6,ATGATCGG,-0.174
7,GTGTATGA,0.14
8,GCACGTAC,-0.123
9,ACACTTTC,0.0457
10,ATACAAAA,0.304
11,ATGCGAGC,-0.16
12,ACTCTGCT,-0.0232
13,CCACACTC,0.0812
14,CATAGGGA,-0.132
15,CCCCCTCA,-0.314
16,GCTGTGTA,0.0384
17,CTCTAAGC,-0.0611
18,ACAAAGAC,0.25
19,CCGAATAG,-0.0201
20,ACGCAGTG,-0.257
21,ACCCCAAC,-0.1
22,ACGTGGAT,-0.07
23,CATCAGTC,-0.138
24,ACCTAGGC,-0.191
25,AAGCTCTC,-0.117

row,Sequence,PBM 8-mer E-score
1,AGTGGGGA,-0.22
2,TTCCCGAA,-0.041
3,TCCTACGA,-0.0392
4,ACGCTATA,0.136
5,ATATTTTG,0.319
6,ACTGTGTA,0.0823
7,AGTTACTC,0.114
8,CCCGTATA,0.0432
9,ATGTCTCA,0.207
10,AAATTGAC,0.166
11,CCTTTTAG,0.0919
12,GCACATCC,-0.186
13,CGTTCCGA,-0.219
14,ACCCTACG,-0.135
15,AGTCATAC,0.0573
16,ACCGGGAT,0.0262
17,ACAAAGAT,0.214
18,AGGCTGTA,-0.0981
19,CGTACCCC,-0.312
20,GTCGCAAA,0.0316
21,ATCCTCTC,-0.177
22,GGGAGGCA,-0.285
23,AATTCCTA,0.0589
24,CTAGGCAG,-0.255
25,ACATTATC,0.218

row,Sequence,PBM 8-mer E-score
1,CGACCAGC,-0.278
2,CCACAACA,0.23
3,ACACCGGT,-0.107
4,ACATGGAA,0.125
5,GAGTCACA,-0.213
6,ACGGTACC,-0.0346
7,ATGTACAA,0.318
8,CTATGCAA,0.0651
9,CTCCAGTA,-0.0483
10,ACAATATA,0.425
11,TAACCAGA,0.0185
12,ACTGCCAT,-0.146
13,CGCTCCTC,-0.262
14,CGCCTTTC,-0.0958
15,GGATACCC,-0.253
16,CGCGTCCA,-0.129
17,ATAAATGA,0.316
18,AGACGAAA,0.0661
19,CCAGCGCC,-0.312
